Data from patent publication US20240034784A1 (published 2024).
Positions count from the first letter of the chain named.

B1: sdab-33-hIgG1Fc (Fc fusion)
chain: QVKLEESGGGLVQAGGSLRLSCAASGSIYRINNMAWYRQAPGKQRELVAEITNSGNTLYTDSVKGRFTISMDGAKNAVYLQMNSLKPEDTAVYSCNAFIIPSVGVFTSRAYWGRGTQVTVSS[sequence of human IgG1 Fc with C220G (EU numbers) omitted]
B2: sdab-29-hIgG1Fc (Fc fusion)
chain: B1 chain with A40I, N53S, T60A, G73N, A77T, V78A, T107I, A110T, Y111F
B3: sdab-34-hIgG1Fc (Fc fusion)
chain: QVKLEESGGGLVQTGGSLSLSCVASGSGISINTMGWYRQGPGKQRELVAIVGKYGETNYADSVKGRFTISRDDAKKTVYLRMNSLKPEDTAVYYCNADVLAAGWWSGRVLWGQGTQVTVSS[sequence of human IgG1 Fc with C220G (EU numbers) omitted]
B4: sdab-13-hIgG1Fc (Fc fusion)
chain: AVQLVESGGGLAQAGGSLRLSCAASGRILNMASMAWFRQTPGKQRESVALITFGGTTNYADSVKGRFTISRDNAKNTVYLQMNDLKSEDTAVYYCNADVVTGLMRRDVYWGQGTQVIVSS[sequence of human IgG1 Fc with C220G (EU numbers) omitted]
B5: sdab-2-hIgG1Fc (Fc fusion)
chain: QVKLEESGGGLVQAGGSLRLSCAASVEIFMMGWYRQAPGKQRELVATISSSGRTNYADSVKGRFTISGDNSKNTVYLQMNSLKPEDTAVYYCYCHYWRDYWGRGTQVTVSS[sequence of human IgG1 Fc with C220G (EU numbers) omitted]
B6: sdab-32-hIgG1Fc (Fc fusion)
chain: QVKLEESGGGLVQAGGSLRLSCAIPGSIVGSTYMGWFRQAPGKQRELVARIAGGGQINYADSVKGRFTISRDNAKNSLYLQMNSLTPEDTAVYYCYVHYWMDYWGQGTQVTVSS[sequence of human IgG1 Fc with C220G (EU numbers) omitted]
B7: sdab-18-hIgG1Fc (Fc fusion)
chain: AVQLVESGGGLVQAGGSLRLSCAASGSIFMINAMGWYRQAPGKQRELVADISRGGSTYYADSVKGRFTISRDNDKNTVSLQMNSLKPEDTAAYYCHAHDVPPFVPGGKSYWGQGTQVTVSS[sequence of human IgG1 Fc with C220G (EU numbers) omitted]
B8: sdab-9-hIgG1Fc (Fc fusion)
chain: DVQLVESGGGLVQAGGSLTLSCAASRSDLFISIMGWYRQAPGKQRELVADISRGGKTNYADAVKARATISRDNAKNTMYLQMNNVKPEDTAVYYCYAQISNPFWGDYWGRGTQVTVSS[sequence of human IgG1 Fc with C220G (EU numbers) omitted]
B9: sdab-4-hIgG1Fc (Fc fusion)
chain: QVQLVESGGGLVQPGGSLRLSCAASGSIFQINTMGWYRQAPGKQRELVAAITTGGSTKYSDSVKGRFTISRDNAKNTVYLQMNSLKPEDTAVYYCNADLKTNSNVFTWYEYWGQGTQVTVSS[sequence of human IgG1 Fc with C220G (EU numbers) omitted]
B10: sdab-35-hIgG1Fc (Fc fusion)
chain: AVQLVESGGGLVQAGGSLRLSCVASGSIFQINTMGWYRQAPGKQREWVTGITTGGTTRYADSVKGRFTISRDNAKNTVYLQMNSLKPEDTAVYYCNSDLKTTSNVFQWYEYWGQGTQVTVSA[sequence of human IgG1 Fc with C220G (EU numbers) omitted]

Each binder was assayed against T1, human Claudin 18.2 (human, UniProt P56856 1-261) (assay: FACS).

| EC50 [nM] | Binder |
| --- | --- |
| 4.41 | B1 |
| 1.08 | B2 |
| 5.22 | B3 |
| 4.02 | B4 |
| 3.88 | B5 |
| 3.39 | B6 |
| 3.6 | B7 |
| 2.72 | B8 |
| 5.94 | B9 |
| 4.73 | B10 |

Target: T1, human Claudin 18.2
Experiment: FACS
Remark: another data set of the same source

| EC50 [nM] | Binder |
| --- | --- |
| 3.81 | B1 |
| 1.46 | B2 |
| 4.37 | B3 |
| 5.41 | B4 |
| 4.19 | B5 |
| 3.04 | B6 |
| 4.18 | B7 |
| 1.76 | B8 |
| 6.79 | B9 |
| 4.66 | B10 |
